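Method: 48-hour compound exposure of cells in 96-well plates, five concentrations, linear interpolation of endpoints. GI50 marks 50% less growth.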 Activity calls are given as the source filed them. No stated cut-off is given here; in the data, active = GI50 up to about 1.1 µM and inactive = higher.
What follows are molecules tested on NCI-H322M (assay: NCI tumour cell line growth inhibition, 48 h).

Structure (SMILES)	GI50
C=C1CCC2C(C)(CO)C(O)CCC2(C)C1C/C=C1\C(=O)OCC1O (centres undefined)	inactive: 29 µM
CC1(C)CC2(C)OC(=N)C1(C#N)C2(C#N)C#N (centres undefined)	inactive: 14.3 µM
O=C(O)c1ccc(NCc2nc3cc4ccccc4cc3[nH]2)cc1	inactive: > 100 µM
CN(CC(=O)O)Cc1c[nH]c2ccccc12	inactive: > 100 µM
Cc1nc2ccccc2nc1-c1ccc(/N=[N+](\[O-])c2ccc(-c3nc4ccccc4nc3C)cc2)cc1	inactive: > 100 µM
CC1=CC(C)(C)Nc2ccc(CSc3ccccc3)cc21	inactive: 28.1 µM
CC/C(=N/O)c1ccc2[nH]c3c(C)cc([N+](=O)[O-])c(C)c3c2c1	inactive: > 100 µM
CC(=O)O[C@]1(C)OC(=O)[C@@H](CC(C)C)N1[N+](=O)[O-]	inactive: > 100 µM
NC1=Nc2ncccc2C(=O)NN1	inactive: 9.33 µM
COc1cccc2c1OC(c1ccc(C#N)cc1)C([N+](=O)[O-])=C2 (centres undefined)	inactive: 4.82 µM
Cc1ccc2c(c1)NC(=O)C(N=[N+]=[N-])(c1ccccc1)C2=O (centres undefined)	inactive: 51.2 µM
C=C1C(=O)OC2C1C(=O)C/C(C)=C/CCC1(C)OC21 (centres undefined)	inactive: > 100 µM
O=C(N/N=C/c1cc(Br)ccc1O)N/N=C/c1cc(Br)ccc1O	inactive: 7.62 µM
CCOCN1COCN(C)C1=O	inactive: > 100 µM
O=C1NC2OCC(O)C(O)C2O1 (centres undefined)	inactive: > 100 µM
Cc1cc(C)c2c(O)c(S(=O)(=O)c3ccc(Cl)cc3)c(=O)oc2c1	inactive: 72.6 µM
Cn1/c(=N\S(=O)(=O)c2ccccc2)n(S(=O)(=O)c2ccccc2)c2ccccc21	inactive: 33.5 µM
CN(C)CCCNC(=O)CCNC(=O)c1cc(NC(=O)c2cc(NC(=O)c3cc(NC(=O)c4nccn4C)cn3C)cn2C)cn1C	inactive: > 100 µM
COc1cccc(/C=C(\NC(C)=O)c2nc3cc(Cl)ccc3[nH]2)c1	inactive: > 100 µM
c1ccc2c(c1)Cn1c-2nc2ccccc21	inactive: 86.9 µM
CC(C)(C)OC(=O)N1CCc2c(n(C/C=C/c3ccccc3)[nH]c2=O)C1	inactive: > 100 µM
CCCCCCCC(=O)OC[n+]1ccc(-c2c(COC(=O)NC(C)C)c(COC(=O)NC(C)C)c3n2CCC3)cc1	inactive: > 100 µM
COC(=O)[C@@H](NC(=O)c1ccc(CNC(=O)/C(C)=C/c2ccccc2)cc1)C(C)C	inactive: 71.9 µM
O=[N+]([O-])c1ccc(N/N=C/CC(O)(C(F)(F)F)C(F)(F)F)c([N+](=O)[O-])c1	inactive: 5.3 µM

Structure (SMILES)	GI50
Cc1ccc2c(CC(=O)O)cc(=O)oc2c1	inactive: > 100 µM
CCOC(=O)c1cccc(/N=N/Nc2cccc(C(=O)OCC)c2)c1	inactive: 88.7 µM
Cn1c(=O)oc2cc(C(=O)CSC(=S)N3CCCCCC3)ccc21	inactive: > 100 µM
CN1CCCC(OC(=O)c2cc3cc(CCl)ccc3oc2=O)C1 (centres undefined)	inactive: 17.9 µM
O=C1/C(=C/c2cccc([N+](=O)[O-])c2)COc2ccccc21	inactive: > 30.3 µM
O=C(c1ccncc1)n1nc(-c2ccccc2)c(/N=N/c2ccc([N+](=O)[O-])cc2)c1-c1ccccc1	inactive: 24.4 µM
O=C1Nc2ccccc2/C1=C1/Nc2ccccc2/C1=N\OCCOC1OCC(O)C(O)C1O (centres undefined)	inactive: > 100 µM
C=CCOC1=C(OC(C)=O)C(=O)OC1C1COC(C)(C)O1 (centres undefined)	inactive: > 96.2 µM
CCN1C(=O)/C(=C\c2coc3ccccc3c2=O)SC1=S	inactive: > 100 µM
CC(C)C(Br)C(=O)NCC(=O)O (centres undefined)	inactive: > 100 µM
COc1ccc2c(c1)OCCc1cn[nH]c1-2	inactive: 82.6 µM
Cc1cc(C)c(S(=O)(=O)N(CCCN)OCCCON(CCCN)S(=O)(=O)c2c(C)cc(C)cc2C)c(C)c1	inactive: 1.87 µM
COc1ccc(NC(=O)CC/C(CC(=O)C(C)(C)C)=N\NC(=O)C(=O)NN)cc1	inactive: > 100 µM
Cc1cccc2c(N)c3cccc(C(=O)NCCNCCN)c3nc12	inactive: 2.97 µM
CSC1=NS(=O)(=O)c2cc(C(=O)NN(C)C(=O)c3cc4c(cc3Cl)SC(SC)=NS4(=O)=O)c(Cl)cc2S1	inactive: > 10 µM
NCC1(N2CCOCC2)C2CCCC21CNc1ccccc1 (centres undefined)	inactive: > 100 µM
C=C(C)C1CCC(C(=O)O)CC1 (centres undefined)	inactive: > 100 µM
Cc1cc2c(s1)C(N)CC2=O (centres undefined)	inactive: > 100 µM
CCCCCCCCCOC(=S)NC	inactive: 30.2 µM
O=C(Nc1nc(C23CC4CC(CC(C4)C2)C3)cs1)c1cc2cc(Cl)ccc2oc1=O	inactive: > 100 µM
COc1ccc(O[C@H](COCc2ccccc2)C[C@@H]2COC(C)(C)O2)cc1	inactive: > 100 µM
C#CCn1c(=O)c(I)cn(/C(=C/C(=O)OCC)C(=O)OCC)c1=O	inactive: 16.8 µM
S=C(Nc1ccc(Cl)cc1)SC1CCCCC1	inactive: 28.7 µM
c1ccc(COCC2OC3c4ccccc4COC3C2OCc2ccccc2)cc1 (centres undefined)	inactive: > 100 µM

Structure (SMILES)	GI50
c1ccc(C2N=NN(c3ccccc3)C2N2CCCCC2)cc1 (centres undefined)	inactive: > 100 µM
COc1ccc(NCc2cccc3c(=O)c4ccc(Cl)cc4oc23)cc1	inactive: > 100 µM
Cc1ccc(/N=c2/oc3c(ccc4ccccc43)nc2Nc2ccc(C)cc2)cc1	inactive: > 100 µM
Cc1ccc(S(=O)(=O)N2CCN3C(=O)c4ccccc4C32c2ccc(F)cc2)cc1 (centres undefined)	inactive: > 100 µM
O=C(CC1SC(Nc2ccccc2Cl)=NC1=O)Nc1ccc(Cl)cc1Cl (centres undefined)	inactive: > 100 µM
CN(C)c1nc2oc(-c3ccccc3)c(-c3ccccc3)c2c2nncn12	inactive: > 100 µM
CCN(CC)CC/N=c1\c2cc(OC)ccc2[nH]c2c([N+](=O)[O-])ccc(NCCN(CC)CC)c12	inactive: 1.3 µM
O=C1/C(=C\c2ccccc2)C(NC2CCCCC2)c2ccccc21 (centres undefined)	inactive: 13 µM
COC(=O)[C@H](CNC(=O)/C=C/c1ccc(OC(C)=O)c(OC(C)=O)c1)NC(=O)/C=C/c1ccc(OC(C)=O)c(OC(C)=O)c1	inactive: > 100 µM
O=C(N/N=C(COc1cccc(Cl)c1)\N=C\c1cccnc1)c1ccncc1	inactive: > 100 µM
COC(=O)C(=O)C1CCCCC(C2=NC3NN=C(N)N3C2=O)C1=O (centres undefined)	inactive: > 100 µM
CS/C(c1ccccc1)=[N+](/C)[O-]	inactive: > 100 µM
CC(=O)OCC1OC(N2C(c3ccccc3)=CC(c3ccco3)C(C#N)=C2S)C(OC(C)=O)C(OC(C)=O)C1OC(C)=O (centres undefined)	inactive: 26.3 µM
O=[N+]([O-])/C(C(Cl)=C(Cl)Cl)=C(\Nc1cccc2ccccc12)n1nnc2ccccc21	inactive: 87.1 µM
CC(=O)OCC1OC(n2c(N)c(C#N)c(-c3ccc(C)cc3)c(C#N)c2=S)C(OC(C)=O)C(OC(C)=O)C1OC(C)=O (centres undefined)	inactive: 16 µM
O=C1Nc2cccc(C(F)(F)F)c2/C1=N/Nc1ccccc1[N+](=O)[O-]	inactive: 27.5 µM
NC(Cc1n[nH]c2ccccc12)C(=O)O (centres undefined)	inactive: > 100 µM
CCC[C@H](C)C[C@H](C)C[C@H](C)/C=C(\C)[C@@H](O)[C@@H](C)C(=O)CC	inactive: 22.7 µM
O=C1Nc2ccccc2NC1C1OC(c2ccccc2)=CC1=O (centres undefined)	inactive: > 100 µM
C(/COc1cccnc1)=N\NC1=NCCN1	inactive: > 100 µM
CCC1=CC2CN3CCc4c([nH]c5ccccc45)C(C(=O)OC)(C2)C13 (centres undefined)	inactive: 44.9 µM
O=C1Oc2ccccc2C(=O)/C1=C/N1C(=O)/C(=C/c2ccc([N+](=O)[O-])cc2)SC1=S	inactive: 33.7 µM
Cc1cccc(C)c1NC(=O)C1C(=O)N(c2c(C)cccc2C)C(=O)/C1=N\NC(N)=S (centres undefined)	inactive: > 100 µM
COC(=O)NC1=NNC(=O)c2ccccc2N1	inactive: > 100 µM

Structure (SMILES)	GI50
O=C(N/N=C/c1ccccc1O)c1cccc([N+](=O)[O-])c1	inactive: 28.6 µM
Cc1ccc(C)c(C(=O)CC2OC(O)C(Cl)C2Cl)c1 (centres undefined)	inactive: > 100 µM
N#CCCN(CCC#N)c1ccc(C(=N/c2ccc(Cl)cc2)/N=N/c2ccccc2)cc1	inactive: > 100 µM
COc1cc(/C=C2\N=C(c3ccccc3)N(c3ccc4c(c3)Sc3cc(N5C(=O)/C(=C/c6cc(OC)c(OC)c(OC)c6)N=C5c5ccccc5)ccc3N4)C2=O)cc(OC)c1OC	inactive: 20.4 µM
COc1ccc(C(=O)O[C@H]2[C@@H]3C=CO[C@@H](OC4OC(CO)C(O)C(O)C4O)[C@@H]3[C@@]3(CO)O[C@@H]23)cc1O (some centres undefined)	inactive: > 100 µM
Nc1nc(N)c(N=O)c(Nc2ccc(I)cc2)n1	inactive: 32.7 µM
C=CC[C@H](N=C(SC)SC)C(=O)N1C(=O)N(C)[C@@H](C)[C@H]1c1ccccc1	inactive: 46.2 µM
O=c1[nH]c(=O)n(C2CC(O)C(CS)O2)cc1F (centres undefined)	inactive: 37.2 µM
CC(C)(Cc1ccccc1)N1C(=O)N1C(C)(C)Cc1ccccc1	inactive: > 100 µM
Cc1ccc(-c2c(N)nc(NC#N)nc2CCC(=O)Nc2ccccc2[N+](=O)[O-])cc1	inactive: > 100 µM
CC(=O)C1=CC=C/C1=N\Nc1ccccc1	inactive: 10.6 µM
C1=NN2C(c3ccccc3)=NOC2C2C(c3ccccc3)=NOC12 (centres undefined)	inactive: > 100 µM
N/C(=N\O)N/N=C\c1c(O)cc(O)cc1O	inactive: > 100 µM
C1=N/CCNCCNCC/N=C/c2ccccc2OCc2cccc(n2)COc2ccccc2/1	inactive: > 100 µM
Cc1cc(S(=O)(=O)N=C2NCC(C)(C)CN2)c(S)cc1Cl	inactive: 41.8 µM
COc1ccc2c(c1OC)C[C@@H]1c3c(cc4c(c3-2)OCO4)CCN1C	inactive: 29.6 µM
O=CN(O)CC(=O)O	inactive: > 100 µM
COc1cccc2c1C(=O)c1c(O)c3c(c(O)c1C2=O)CC(O)(C(=O)CO)CC3OC1CC(N2CCOCC2C#N)C(O)C(C)O1 (centres undefined)	active: > 0.01 µM
c1ccc(-c2nnc(-c3nsc4ccccc34)o2)cc1	inactive: > 100 µM
O=C1C=C2SC3C[C@@]24CC1(O)[N+]1=c2c4c(c(O)c4c2=C(C=N4)CC1)N3	inactive: 1.52 µM
Nc1ccc(-c2nn3c(COc4ccc(Cl)cc4)nnc3s2)cc1	inactive: > 100 µM
CN1CCN(c2cc3nc4cc(O)cc(O)c4c(O)c3cc2N)CC1	inactive: 26.8 µM

From ChEMBL document CHEMBL1201862, “PubChem BioAssay data set” (2004)
